The other results are listed elsewhere or left out. At the low end of the ranking, values are background and their order means little.

In the assay the target is GST-SBP-SLBP (stem-loop binding protein) (UniProt Q14493). Description: targeted RNA Bind-n-Seq.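 Also: DESeq read counts versus GST-SBP nonspecific binding control pulldown.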 The following applies: RBNS binding buffer: 25 mM Tris pH 7.5, 150 mM KCl, 3 mM MgCl2, 0.1% Tween, 0.5 mg/mL BSA, 1 mM DTT; 27 nM protein, 750 pM RNA pool; temperature not stated; high values mean tight binding.
For the sequence “GGUCACGUCUCAAUCAACUCUAUAGAGGGGGGGAAAACCCCUUUGCCCUCAUUUUCAACAGCUCGCAGUCAAG”, the binding signal (log2 fold change) was -0.0364.

Consider “GGUCACGUCUCAAUCAACUCAUUUUCAGGAGUUUCCUCCUGCAUUUUCAACAGCUCGCAGUCAAG”, for which the binding signal (log2 fold change) is -0.0704.

“GGUCACGUCUCAAUCAACUCUUUUUCCAGGGAAAACCCUGGUUAUUUCAACAGCUCGCAGUCAAG”: the binding signal (log2 fold change) was -0.054.

As to “GGUCACGUCUCAAUCAACUCUUCUCCCAGGGAAAGCCCUGGCAAUGUCAACAGCUCGCAGUCAAG”, the binding signal (log2 fold change) turned out to be 0.156.

Turning to “GGUCACGUCUCAAUCAACUCUACAGAGGGGGGGAAAACCCCUUUACCCUCCCAAUCAACAGCUCGCAGUCAAG”, the binding signal (log2 fold change) was -0.177.

Regarding “GGUCACGUCUCAAUCAACUCUUAAGAGGGGGGGAAAACCCCUUUACCCUCGUCAUCAACAGCUCGCAGUCAAG”, the binding signal (log2 fold change) was 0.24.

Consider “GGUCACGUCUCAAUCAACUCAUUUUCAGGAGUUUUCUCCUGCAUAUUCAACAGCUCGCAGUCAAG”, for which the binding signal (log2 fold change) is 0.0407.

With “GGUCACGUCUCAAUCAACUCAAUUCCAGGAGUUUUCUCCUGUUAUCUCAACAGCUCGCAGUCAAG”, the binding signal (log2 fold change) is -0.161.

Regarding “GGUCACGUCUCAAUCAACUCCUACGAGGGGGGGAAAACCCCUUUACCCUCAACCUCAACAGCUCGCAGUCAAG”, the binding signal (log2 fold change) is 0.619.

As for “GGUCACGUCUCAAUCAACUCAUACGAGGGGGGGAAAACCCCUUUGCCCUCAAAAUCAACAGCUCGCAGUCAAG”, the binding signal (log2 fold change) was -0.136.

In the case of “GGUCACGUCUCAAUCAACUCUUCGCCCAGGGAAAUCCCUGGUUUUUUCAACAGCUCGCAGUCAAG”, the binding signal (log2 fold change) was -0.209.

Consider “GGUCACGUCUCAAUCAACUCUUUCUCCAGGGAAACCCCUGGCUUUCUCAACAGCUCGCAGUCAAG”, for which the binding signal (log2 fold change) is 0.00602.

With “GGUCACGUCUCAAUCAACUCUACUCCAGGAGUUUUCUCCUGCUAUCUCAACAGCUCGCAGUCAAG”, the binding signal (log2 fold change) worked out at 0.13.

With “GGUCACGUCUCAAUCAACUCAUCGUCAGGAGUUUUCUCCUGUAUUUUCAACAGCUCGCAGUCAAG”, the binding signal (log2 fold change) is -0.0133.

“GGUCACGUCUCAAUCAACUCAUUCUCCAGGGAAAUCCCUGGCAUACUCAACAGCUCGCAGUCAAG”: the binding signal (log2 fold change) came out at 0.258.

Turning to “GGUCACGUCUCAAUCAACUCAAUUUCAGGAGUUUUCUCCUGCUUUUUCAACAGCUCGCAGUCAAG”, the binding signal (log2 fold change) was -0.0958.

Take “GGUCACGUCUCAAUCAACUCUAUCUCCAGGGAAAUCCCUGGUAAUCUCAACAGCUCGCAGUCAAG”: the binding signal (log2 fold change) was -0.0443.

Regarding “GGUCACGUCUCAAUCAACUCAUCCUCCAGGGAAAUCCCUGGCUUUUUCAACAGCUCGCAGUCAAG”, the binding signal (log2 fold change) was determined as 0.141.

In the case of “GGUCACGUCUCAAUCAACUCAUCCCCCAGGGAAACCCCUGGCUAUUUCAACAGCUCGCAGUCAAG”, the binding signal (log2 fold change) was -0.316.

As for “GGUCACGUCUCAAUCAACUCUACUCCAGGAGUUUACUCCUGUUAUUUCAACAGCUCGCAGUCAAG”, the binding signal (log2 fold change) is 0.0217.

For the sequence “GGUCACGUCUCAAUCAACUCUUCGUCCAGGGAAAUCCCUGGUAAUCUCAACAGCUCGCAGUCAAG”, the binding signal (log2 fold change) was -0.144.

On to “GGUCACGUCUCAAUCAACUCUAUCCCAGGAGUUUUCUCCUGCAAUUUCAACAGCUCGCAGUCAAG”, for which the binding signal (log2 fold change) is -0.076.

Regarding “GGUCACGUCUCAAUCAACUCUUUCUCCAGGGAAAUCCCUGGUAAUGUCAACAGCUCGCAGUCAAG”, the binding signal (log2 fold change) was -0.00776.

Take “GGUCACGUCUCAAUCAACUCAUCGCCAGGAGUUUUCUCCUGUUAUUUCAACAGCUCGCAGUCAAG”: the binding signal (log2 fold change) is 0.159.

Take “GGUCACGUCUCAAUCAACUCAACUCCAGGAGUUUCCUCCUGUUAAUUCAACAGCUCGCAGUCAAG”: the binding signal (log2 fold change) is 0.0634.

Turning to “GGUCACGUCUCAAUCAACUCAACUUCCAGGGAAAUCCCUGGUAUUUUCAACAGCUCGCAGUCAAG”, the binding signal (log2 fold change) was -0.186.

With “GGUCACGUCUCAAUCAACUCUUCUCCAGGAGUUUUCUCCUGCAAUGUCAACAGCUCGCAGUCAAG”, the binding signal (log2 fold change) was -0.082.

As for “GGUCACGUCUCAAUCAACUCUUCUUCCAGGGAAAGCCCUGGCAAACUCAACAGCUCGCAGUCAAG”, the binding signal (log2 fold change) was -0.0185.

“GGUCACGUCUCAAUCAACUCUUCCUCCAGGGAAAUCCCUGGUAAUCUCAACAGCUCGCAGUCAAG”: the binding signal (log2 fold change) came to 0.107.

Turning to “GGUCACGUCUCAAUCAACUCUACUCCAGGAGUUUUCUCCUGCUAACUCAACAGCUCGCAGUCAAG”, the binding signal (log2 fold change) was found to be 0.0682.

Turning to “GGUCACGUCUCAAUCAACUCUUUUCCCAGGGAAAACCCUGGUAUUCUCAACAGCUCGCAGUCAAG”, the binding signal (log2 fold change) worked out at 0.115.

With “GGUCACGUCUCAAUCAACUCUACUCCAGGAGUUUCCUCCUGCAUUUUCAACAGCUCGCAGUCAAG”, the binding signal (log2 fold change) was -0.0588.

Turning to “GGUCACGUCUCAAUCAACUCUACUCCCAGGGAAACCCCUGGCAAAUUCAACAGCUCGCAGUCAAG”, the binding signal (log2 fold change) is -0.525.

Regarding “GGUCACGUCUCAAUCAACUCAUUUUCCAGGGAAACCCCUGGCUUUCUCAACAGCUCGCAGUCAAG”, the binding signal (log2 fold change) is -0.172.

As to “GGUCACGUCUCAAUCAACUCAGUCUCAGGAGUUUUCUCCUGCAAUCUCAACAGCUCGCAGUCAAG”, the binding signal (log2 fold change) was 0.159.

For “GGUCACGUCUCAAUCAACUCAAUCUCCAGGGAAACCCCUGGUUUUUUCAACAGCUCGCAGUCAAG”, the binding signal (log2 fold change) is -0.0734.

As to “GGUCACGUCUCAAUCAACUCAUCUUCCAGGGAAAUCCCUGGUAUUCUCAACAGCUCGCAGUCAAG”, the binding signal (log2 fold change) worked out at 0.195.

Consider “GGUCACGUCUCAAUCAACUCAAUCUCCAGGGAAAUCCCUGGUAAACUCAACAGCUCGCAGUCAAG”, for which the binding signal (log2 fold change) is 0.00813.

(Values after publication PMC5892938.)
